# In all, about 310,000 compounds went through this assay and about 2,200 (0.71%) showed an effect of 50% or more. Effects have a minus sign here. The list shows a part of the results.
# Molecular target: human ether-à-go-go-related gene (hERG) potassium channel (human, UniProt Q12809)
# Experiment: primary screen, population patch clamp on CHO cells stably expressing hERG
# Chain of human ether-à-go-go-related gene (hERG) potassium channel (Q12809 whole entry, looked up): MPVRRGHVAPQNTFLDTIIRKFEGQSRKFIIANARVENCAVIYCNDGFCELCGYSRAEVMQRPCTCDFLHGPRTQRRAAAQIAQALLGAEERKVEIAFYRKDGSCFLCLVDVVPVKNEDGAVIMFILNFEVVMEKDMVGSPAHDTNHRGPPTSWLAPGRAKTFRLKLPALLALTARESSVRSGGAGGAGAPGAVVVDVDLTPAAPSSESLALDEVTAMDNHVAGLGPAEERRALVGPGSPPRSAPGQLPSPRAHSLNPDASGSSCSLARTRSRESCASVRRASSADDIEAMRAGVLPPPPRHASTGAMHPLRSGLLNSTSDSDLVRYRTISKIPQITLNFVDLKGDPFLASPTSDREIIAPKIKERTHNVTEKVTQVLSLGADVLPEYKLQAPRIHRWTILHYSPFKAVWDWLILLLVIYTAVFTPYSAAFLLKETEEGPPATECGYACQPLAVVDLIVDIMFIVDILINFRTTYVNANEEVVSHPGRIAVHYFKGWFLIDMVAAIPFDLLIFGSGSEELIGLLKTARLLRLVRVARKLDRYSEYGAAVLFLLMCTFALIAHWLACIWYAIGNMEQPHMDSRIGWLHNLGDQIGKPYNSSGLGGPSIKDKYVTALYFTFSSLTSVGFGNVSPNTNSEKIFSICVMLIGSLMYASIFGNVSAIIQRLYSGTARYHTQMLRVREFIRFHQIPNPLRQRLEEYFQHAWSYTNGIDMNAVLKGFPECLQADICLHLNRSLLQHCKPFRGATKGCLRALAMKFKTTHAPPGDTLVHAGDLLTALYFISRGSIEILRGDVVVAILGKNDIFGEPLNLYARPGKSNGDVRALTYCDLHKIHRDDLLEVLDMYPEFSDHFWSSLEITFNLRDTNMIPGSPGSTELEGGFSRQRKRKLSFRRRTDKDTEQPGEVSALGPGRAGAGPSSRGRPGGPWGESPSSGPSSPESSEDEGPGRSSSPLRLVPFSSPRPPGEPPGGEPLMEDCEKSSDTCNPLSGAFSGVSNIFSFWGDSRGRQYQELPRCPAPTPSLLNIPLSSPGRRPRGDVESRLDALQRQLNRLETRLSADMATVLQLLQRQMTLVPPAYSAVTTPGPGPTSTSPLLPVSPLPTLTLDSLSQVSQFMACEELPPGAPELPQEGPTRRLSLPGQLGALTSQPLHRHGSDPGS
row,SMILES,"hERG current change (%, negative = inhibition) at 1uM [%]"
1,Cc1cc(N/N=C/c2ccc([N+](=O)[O-])o2)nc2ccccc12,9.29
2,Cc1cc(S(=O)(=O)N2CCN(c3ccccn3)CC2)ccc1F,9.75
3,CS(=O)(=O)N1CCC(C(=O)Nc2ccc(Cl)c(C(F)(F)F)c2)CC1,0.657
4,COc1cccc(/C=N/n2nnc3c(cnn3-c3ccccc3)c2=O)c1,10.7
5,CCOc1ccc(NC(=O)C2CCC(N3C(=O)C4CC=CCC4C3=O)CC2)cc1 (stereo not shown),16.9
6,COc1ccc(C(=O)NCC(c2ccco2)N2CCCC2)cc1S(=O)(=O)N1CCCCC1C (stereo not shown),-16.2
7,CCc1noc(C)c1C(=O)Nc1cc(S(=O)(=O)N2CCOCC2)ccc1OC(C)C,-1.94
8,O=S(=O)(O)c1nc2ccccc2n1Cc1ccc(Cl)cc1,14.1
9,Cl.c1csc(CN2CCNCC2)c1,11.4
10,CC(C(=O)O)N1C(=O)c2ccccc2C1=O (stereo not shown),0.051
11,O=C(O)C1CCCCC1C(=O)NC(c1ccccc1)c1ccccc1 (stereo not shown),6.28
12,O=C1c2cccc([N+](=O)[O-])c2C(=O)N1CCO,10.8
13,CCOC(=O)c1sc(Nc2nc3c(OC)cccc3s2)cc1C,-3.13
14,Cc1ccc(S(=O)(=O)C2CCOC2=O)cc1 (stereo not shown),2.77
15,Cc1ccc(N(C(=O)CNC(=O)c2ccco2)C(C(=O)NC2CCCCC2)c2cccnc2)cc1F (stereo not shown),12.3
16,O=[N+]([O-])c1ccc(/C=N\N2CCN(c3ccc(Cl)cc3)CC2)cc1,14.9
17,COc1ccccc1CNC(=O)N1CCN(S(=O)(=O)c2ccc(C)cc2)CC1,9.88
18,CCCCc1ncc(CN2CCC(CC3CCCCO3)(C(=O)OCC)CC2)[nH]1 (stereo not shown),-19.8
19,Cc1ccc(O)c(C(=O)c2cc(C(=O)NCCC(C)C)c(=O)n(CCC(C)C)c2)c1,15.2
20,CC(OC(=O)c1nn(C)c(=O)c2ccccc12)C(=O)Nc1ccc(S(N)(=O)=O)cc1 (stereo not shown),12.5
21,O=C1COc2ccc(C(=O)/C=C/c3ccccc3)cc2N1,14.5
22,Cl.c1ccc(SCCOCCN2CCOCC2)cc1,11.5

row,SMILES,"hERG current change (%, negative = inhibition) at 1uM [%]"
1,NC(=O)c1cccc2cc3ccccc3cc12,5.6
2,COc1cc(CN2CCC(Cc3ccccc3)CC2)cc(OC)c1OC.O=C(O)C(=O)O,-12
3,CSC1=NC(C)(C)CC2(C)Nc3ccccc3N12 (stereo not shown),15.1
4,Cc1ccc(NC(=O)CN(CCc2ccccc2)S(C)(=O)=O)cc1,9.01
5,CCOC(=O)Nc1ccc2c(CN3CCN(S(=O)(=O)c4ccc(C(C)C)cc4)CC3)cc(=O)oc2c1,17.9
6,Cc1ccc(CNC(=O)c2ccc(C#CC(C)(C)O)s2)cc1,0.607
7,CN1CC(C(=O)c2cccs2)C(c2ccc(Cl)cc2)C1 (stereo not shown),2.44
8,O=S(=O)(Nc1ccccc1N1CCCCC1)c1ccc(Cl)s1,3.78
9,Cc1nn(-c2ccccc2)c(C)c1C(=O)NCc1ccccc1F,16.1
10,Cc1nnc(NC(=O)C2=COCCO2)s1,12.2
11,CC1CN(C(=O)COC(=O)c2ccc(N(C)C)cc2)CC(C)O1 (stereo not shown),8.16
12,CC(=O)O[C@@]12CO[C@@H]1C[C@H](O)[C@@]1(C)C(=O)[C@H](O)C3=C(C)[C@@H](OC(=O)[C@H](O)[C@@H](NC(=O)OC(C)(C)C)c4ccccc4)C[C@](O)([C@@H](OC(=O)c4ccccc4)[C@H]21)C3(C)C,0.463
13,Cc1cc(OCC(=O)c2ccc(C(F)(F)F)cc2)n2cnnc2n1,-2.11
14,Cc1ccccc1C(=O)N1CCC(C(=O)OCc2ccccc2Cl)CC1,14.6
15,CC(C)(C)n1nnnc1C(c1cccs1)N(Cc1cccnc1)Cc1ccccc1Cl (stereo not shown),-8.83
16,O=C(c1ccccn1)N1CCN(C(=O)c2ccccn2)CC1,10.7
17,COc1ccc(-c2cn3nc(SCC(=O)NCC4CCCO4)ccc3n2)cc1 (stereo not shown),13.5
18,CCOC(=O)c1nnn(-c2nonc2N)c1CN(C)C1CCCCC1,9.33
19,COc1ccc(NC(=O)CN2CCCC2)cc1,14.6
20,O=C(Nc1nnc(S(=O)(=O)N2CCCCCC2)s1)c1cccc(Br)c1,16.4
21,CCOC(=O)c1cc(NC(=O)c2ccco2)ccc1N1CCOCC1,0.851
22,COc1cc2c(=O)n(CCC(=O)NCC3CCCO3)c(=O)n(CC(=O)Nc3ccccc3C)c2cc1OC (stereo not shown),-4.95

row,SMILES,"hERG current change (%, negative = inhibition) at 1uM [%]"
1,COc1ccc(NC(=O)CN2C(=O)CSc3ccc(S(=O)(=O)N4CCCC4)cc32)cc1OC,10.8
2,O=C(C[n+]1cc(Br)cc(Br)c1)c1ccc(Cl)cc1.[Br-],2.66
3,Cc1cccc(OCC(=O)N2CCC(c3ccccc3)C2)c1 (stereo not shown),7.51
4,O=C(NC1CC(=O)c2sccc21)c1cccc(C(F)(F)F)c1 (stereo not shown),5.54
5,CC(On1c(-c2ccccc2)nc2ccc(Cl)cc21)C(=O)O (stereo not shown),24.9
6,Cc1cc(NC(=O)CSc2nnnn2C)n(-c2ccccc2)n1,0.916
7,CCOC(=O)C1(Cc2ccccc2C(F)(F)F)CCN(C(C)CCn2cccn2)CC1 (stereo not shown),-40.8
8,COC(=O)c1cc(S(=O)(=O)N2CCN(Cc3ccccc3)CC2)cn1C,6.69
9,COCCCNC(=O)C(C#N)c1nc2ccccc2nc1N1CCCC1 (stereo not shown),-2.53
10,CC(C)CC(C(=O)OCC(=O)c1c(N)n(C)c(=O)n(C)c1=O)N1C(=O)c2ccccc2C1=O (stereo not shown),2.01
11,CC(C)C(NS(=O)(=O)c1cccc2nsnc12)C(=O)N1CCn2c1nc1ccccc12 (stereo not shown),4.84
12,C=CCNC(=S)N/N=C(\C)c1ccccn1,-10.3
13,CCOc1cc(CNCC(O)c2ccccc2)cc(Cl)c1OC.Cl (stereo not shown),-0.978
14,Cc1cc(C)n(CC(=O)O)n1,11
15,O=C(COC(=O)CNC(=O)c1ccc(Cl)cc1)Nc1ccc2c(c1)OCCO2,11.8
16,Cc1onc(-c2ccccc2)c1C(=O)NC(C)C,11.7
17,Cc1cc(C)c(S(=O)(=O)Nc2cc(C)on2)c(C)c1,1.59
18,CC(=O)N1CCN(C(=O)CCCNC(=O)c2ccc(Cl)cc2)CC1,12.7
19,O=C(O)/C=C/c1ccc(S(=O)(=O)N2CCCCCC2)cc1,12
20,COc1ccc(C(=O)NC2CC2)cc1OC1CCN(Cc2cnn(C)c2)CC1,6.61
21,COC(=O)COc1ccc(/C=C2/NC(=O)N(CC(=O)OC)C2=O)cc1,12.6
22,CS(=O)(=O)N1CCN(c2ccccc2NC(=O)Nc2cccc(Cl)c2)CC1,18

row,SMILES,"hERG current change (%, negative = inhibition) at 1uM [%]"
1,CCOC(=O)C1CCCN(C(=O)CCNC(=O)Cn2ccc3ccccc3c2=O)C1 (stereo not shown),3.13
2,CN(c1cccc(NC(=O)c2ccc(N(C)S(=O)(=O)c3ccccc3)cc2)c1)S(C)(=O)=O,12.4
3,O=C(CNc1cccc(S(=O)(=O)N2CCCC2)c1)Nc1ccc(F)c(F)c1,19.2
4,CC(C)(C)c1ccc(OCc2ccc(C(=O)Nc3cccnc3)o2)cc1,6.81
5,Cn1c(O)c(C=NCCCC(=O)O)c(=O)n(C)c1=O,-0.766
6,O=C(CNc1cccc(S(=O)(=O)N2CCOCC2)c1)Nc1ccc(C(F)(F)F)cc1,-24.3
7,O=C1c2c(O)cc(O)cc2O[C@H](c2ccc(O)cc2)[C@H]1O,14.8
8,Cc1ccc(S(=O)(=O)Nc2cc(S(=O)(=O)N3CCOCC3)ccc2NCC2CCCO2)cc1 (stereo not shown),8.59
9,O=C(OCC(=O)N1CCN(c2ccccc2)CC1)c1ccncc1,4.53
10,Cc1nn(-c2ccccc2)c(=S)c2ccccc12,11.4
11,Cc1cc(NC(=O)c2cnn3c(C(F)F)cc(C4CC4)nc23)no1,3.33
12,CCOC(=O)c1c(-c2ccccc2)oc2ccc(OCC(=O)NNC(=O)CCCC(=O)O)cc12,15
13,CN(C)c1ccc(-c2nnn(CC(=O)N3c4ccccc4CCc4ccccc43)n2)cc1,8.54
14,Cc1ccnc(NS(=O)(=O)c2ccc(NC(=O)c3ccc(C)o3)cc2)n1,6.32
15,COc1ccc(OC)c(CNC(=O)c2nn(C)c3c2CS(=O)(=O)c2ccccc2-3)c1,19.4
16,Cc1ccc(NN=C2c3ccccc3-c3ccccc32)cc1.Cl,14.8
17,Cc1ccc(Nc2cc(C)nc3ncnn23)cc1,13.9
18,CCOc1cccc(=O)c2c(C)n(Cc3ccccc3)c(C)c12,5.91
19,CC(C)NC(=O)C(=O)NCCN1CCN(S(=O)(=O)c2ccc(Cl)cc2)CC1,-13.1
20,O=C(Oc1ccccc1)c1cccc(COC(=O)c2cnccn2)c1,1.89
21,O=C(NNC(=O)c1ccccc1O)c1ccc(NS(=O)(=O)c2ccc(F)cc2)cc1,13
22,O=C(OCc1cn(Cc2ccccc2)nn1)c1ccccc1,8.15
